# Reference: the supplement of paper PMC8728848
# The other results are listed elsewhere or left out.
# Legend:
# Experiment in all cases: glycan array binding signal (z-score within array); higher = stronger binding
# Conditions in all cases: glycan notation: IUPAC condensed, linker removed
# [1] = target: Neu5Ac(a2-3)Gal6S(b1-4)[Fuc(a1-3)]GlcNAc
# How it was run: (§1)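 Glycan array data came from 3228 arrays in the Consortium for Functional Glycomics database, and only arrays with an available protein sequence were kept. Glycan names were put into IUPAC-condensed notation, and columns mapping to the same glycan were averaged. The binding signal is a within-array Z-score, averaged across arrays of one protein sequence run at different concentrations or buffers and across linkers. A negative Z-score can be read as non-binding.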
# [2] = target: Neu5Ac(a2-3)GalNAc
# How it was run: as §1
# [3] = target: Neu5Ac(a2-3)GalNAc(b1-4)GlcNAc
# How it was run: as §1
# [4] = target: Neu5Ac(a2-3)[GalNAc(b1-4)]Gal(b1-4)Glc
# How it was run: as §1
# [5] = target: Neu5Ac(a2-3)[GalNAc(b1-4)]Gal(b1-4)GlcNAc
# How it was run: as §1
# [6] = target: Neu5Ac(a2-3)[GalNAc(b1-4)]Gal(b1-4)GlcNAc(b1-3)GalNAc
# How it was run: as §1
# [7] = target: Neu5Ac(a2-3)[Neu5Ac(a2-6)]GalNAc
# How it was run: as §1
# [8] = target: Neu5Ac(a2-6)Gal
# How it was run: as §1
# [9] = target: Neu5Ac(a2-6)Gal(b1-3)GlcNAc(b1-3)[Gal(b1-4)GlcNAc(b1-6)]Gal(b1-4)Glc
# How it was run: as §1
# [10] = target: Neu5Ac(a2-6)Gal(b1-4)Glc
# How it was run: as §1
# [11] = target: Neu5Ac(a2-6)Gal(b1-4)GlcNAc
# How it was run: as §1
# [12] = target: Neu5Ac(a2-6)Gal(b1-4)GlcNAc(b1-2)Man
# How it was run: as §1
# [13] = target: Neu5Ac(a2-6)Gal(b1-4)GlcNAc(b1-2)Man(a1-3)Man(b1-4)GlcNAc(b1-4)GlcNAc
# How it was run: as §1
# [14] = target: Neu5Ac(a2-6)Gal(b1-4)GlcNAc(b1-2)Man(a1-3)[Gal(b1-4)GlcNAc(b1-2)Man(a1-6)]Man(b1-4)GlcNAc(b1-4)GlcNAc
# How it was run: as §1
# [15] = target: Neu5Ac(a2-6)Gal(b1-4)GlcNAc(b1-2)Man(a1-3)[GlcNAc(b1-2)Man(a1-6)]Man(b1-4)GlcNAc(b1-4)GlcNAc
# How it was run: as §1
# [16] = target: Neu5Ac(a2-6)Gal(b1-4)GlcNAc(b1-2)Man(a1-3)[GlcNAc(b1-2)Man(b1-4)GlcNAc(b1-2)Man(a1-6)]Man(b1-4)GlcNAc(b1-4)GlcNAc
# How it was run: as §1
# [17] = target: Neu5Ac(a2-6)Gal(b1-4)GlcNAc(b1-2)Man(a1-3)[GlcNAc(b1-4)][Neu5Ac(a2-6)Gal(b1-4)GlcNAc(b1-2)Man(a1-6)]Man(b1-4)GlcNAc(b1-4)GlcNAc
# How it was run: as §1
# [18] = target: Neu5Ac(a2-6)Gal(b1-4)GlcNAc(b1-2)Man(a1-3)[Man(a1-6)]Man(b1-4)GlcNAc(b1-4)GlcNAc
# How it was run: as §1
# [19] = target: Neu5Ac(a2-6)Gal(b1-4)GlcNAc(b1-2)Man(a1-3)[Neu5Ac(a2-3)Gal(b1-4)GlcNAc(b1-2)Man(a1-6)]Man(b1-4)GlcNAc(b1-4)GlcNAc
# How it was run: as §1
# [20] = target: Neu5Ac(a2-6)Gal(b1-4)GlcNAc(b1-2)Man(a1-3)[Neu5Ac(a2-6)Gal(b1-4)GlcNAc(b1-2)Man(a1-6)]Man(b1-4)GlcNAc(b1-4)GlcNAc
# How it was run: as §1
# [21] = target: Neu5Ac(a2-6)Gal(b1-4)GlcNAc(b1-2)Man(a1-3)[Neu5Ac(a2-6)Gal(b1-4)GlcNAc(b1-2)Man(a1-6)]Man(b1-4)GlcNAc(b1-4)[Fuc(a1-6)]GlcNAc
# How it was run: as §1
# [22] = target: Neu5Ac(a2-6)Gal(b1-4)GlcNAc(b1-2)Man(a1-6)Man(b1-4)GlcNAc(b1-4)GlcNAc
# How it was run: as §1
# [23] = target: Neu5Ac(a2-6)Gal(b1-4)GlcNAc(b1-2)Man(a1-6)[Gal(b1-4)GlcNAc(b1-2)Man(a1-3)]Man(b1-4)GlcNAc(b1-4)GlcNAc
# How it was run: as §1
# [24] = target: Neu5Ac(a2-6)Gal(b1-4)GlcNAc(b1-2)Man(a1-6)[GlcNAc(b1-2)Man(a1-3)]Man(b1-4)GlcNAc(b1-4)GlcNAc
# How it was run: as §1
# [25] = target: Neu5Ac(a2-6)Gal(b1-4)GlcNAc(b1-2)Man(a1-6)[Man(a1-3)]Man(b1-4)GlcNAc(b1-4)GlcNAc
# How it was run: as §1
# [26] = target: Neu5Ac(a2-6)Gal(b1-4)GlcNAc(b1-2)[Neu5Ac(a2-6)Gal(b1-4)GlcNAc(b1-4)]Man(a1-3)[GlcNAc(b1-4)][Neu5Ac(a2-6)Gal(b1-4)GlcNAc(b1-2)[Neu5Ac(a2-6)Gal(b1-4)GlcNAc(b1-6)]Man(a1-6)]Man(b1-4)GlcNAc(b1-4)GlcNAc
# How it was run: as §1
# [27] = target: Neu5Ac(a2-6)Gal(b1-4)GlcNAc(b1-2)[Neu5Ac(a2-6)Gal(b1-4)GlcNAc(b1-4)]Man(a1-3)[GlcNAc(b1-4)][Neu5Ac(a2-6)Gal(b1-4)GlcNAc(b1-4)Man(a1-6)]Man(b1-4)GlcNAc(b1-4)GlcNAc
# How it was run: as §1
# [28] = target: Neu5Ac(a2-6)Gal(b1-4)GlcNAc(b1-2)[Neu5Ac(a2-6)Gal(b1-4)GlcNAc(b1-6)]Man(a1-6)[Neu5Ac(a2-6)Gal(b1-4)GlcNAc(b1-2)Man(a1-3)][GlcNAc(b1-4)]Man(b1-4)GlcNAc(b1-4)GlcNAc
# How it was run: as §1
# [29] = target: Neu5Ac(a2-6)Gal(b1-4)GlcNAc(b1-3)Gal(b1-3)GlcNAc
# How it was run: as §1
# [30] = target: Neu5Ac(a2-6)Gal(b1-4)GlcNAc(b1-3)Gal(b1-4)GlcNAc
# How it was run: as §1
binder,measurement,setting,value
"Epa1-NP (Candida glabrata), Q6VBJ0 (protein) MILNPALFLNKCVCIYTTLILLLLTNGGYATSSNDISLASKDPTTFPLGCSPDITTPKKGLSMELYSYDFRKKGSYPCWDAAYLDPNYPRTGYKSHRLLAKVDGVTGNINFYYHATKGCTPQLGHLPASYNYPKPLTMTNFTMLLYGYFRPKVTGFHTFTISADDLLFVNFGAGNAFDCCRRDSSADHFGNYQAYAIWGSKTAKDELTVHLDAGVYYPIRLFYNNREYDGALSFTFKTESNENTVSDFSEYFFSLDDTEEGCPGLISYDSSCASVKTSKIIGIDYHTETPNENLVPITKTIYHLGIPCTGTTTTPLCGSGFYDPLANKCVTINTSSTSSVTKTTSHTTSKEVSFHSSISSQKTLIPKSIPSPYGPIKSQSIPTEMETSSEISSSEYAFSDVISTPSHSPYTKKHSSLNSSSYTSTVIHSLTSYSISQGIFSTSLSEQNITSKSSTDKFSTATSMSNNITQSSIIISQFSTNNENYTTTSMHTSSDKISTETLNNSISTTTSILFSNSSTILKNNTTIISSDKDTHYHPVNPTIVCSTNKTEIICASITQPSISNSNNHWSSSVLKFNSTTVRSTLPSSAGSNETSINVPFSSSTESNTSTSSTSTSNSKMVRSTLPSSAGSNETSISVPFSSSTESNTSTSSTSTSNSKMVRSTLPSSAGSNETSINVPFSSSTESNTSTSSTSTSNSKTVRSTPFSSAGIIMTSLSQRNNKSASSYASSNSKCYNTADSCRKVHSTPSYLLTSSYTSEGVDYDCSLVSTKLKINDTNCVNNKHTTKSCLKTSVTTTIPTLEIKTARKSSSNTIGLHSYPTSSPNKSISSAPIIGYISSFKTIKTASPSYQTSDLTTITTITSLNNPGSTAVENTHESNDKSRKTSSNDISSKHSVIKETKDAVESSNKSHQTNTLKCSSIIIASSSHNSYESLGGTTLTLTLSKVYSPQNNDTLPFLEISEVNPSRTVLPESSKMMQYLTSTEERNKTARNTIATNIVSISTFHFEGEGNAIRMGYTQLLLMLIGIIVMNIGT",glycan array binding signal (z-score),[1],-0.312
same,glycan array binding signal (z-score),[2],-0.329
same,glycan array binding signal (z-score),[3],-0.338
same,glycan array binding signal (z-score),[4],-0.329
same,glycan array binding signal (z-score),[5],-0.334
same,glycan array binding signal (z-score),[6],-0.305
same,glycan array binding signal (z-score),[7],-0.344
same,glycan array binding signal (z-score),[8],-0.276
same,glycan array binding signal (z-score),[9],0.296
same,glycan array binding signal (z-score),[10],-0.276
same,glycan array binding signal (z-score),[11],-0.319
same,glycan array binding signal (z-score),[12],-0.288
same,glycan array binding signal (z-score),[13],-0.272
same,glycan array binding signal (z-score),[14],-0.289
same,glycan array binding signal (z-score),[15],-0.257
same,glycan array binding signal (z-score),[16],-0.296
same,glycan array binding signal (z-score),[17],-0.292
same,glycan array binding signal (z-score),[18],-0.28
same,glycan array binding signal (z-score),[19],-0.287
same,glycan array binding signal (z-score),[20],-0.318
same,glycan array binding signal (z-score),[21],-0.283
same,glycan array binding signal (z-score),[22],-0.267
same,glycan array binding signal (z-score),[23],-0.033
same,glycan array binding signal (z-score),[24],-0.261
same,glycan array binding signal (z-score),[25],-0.264
same,glycan array binding signal (z-score),[26],-0.288
same,glycan array binding signal (z-score),[27],-0.286
same,glycan array binding signal (z-score),[28],-0.289
same,glycan array binding signal (z-score),[29],-0.282
same,glycan array binding signal (z-score),[30],-0.339
